This is an account of results in PubChem BioAssay AID493208 (National Center for Advancing Translational Sciences (NCATS), 2011).

Each structure is given as a SMILES string. The whole screen tested about 44,000 compounds, of which about 340 (0.77%) were called active. Not shown: some 5% with an inconclusive outcome. The call rests on the fitted dose curve; in most records, active means well fitted inhibition curve with a large enough effect; inconclusive means small, poorly fitted or top-dose-only effect; inactive means flat fitted curve, though single readings scatter. The list shows a part of the results.
Potency means the concentration at half of the fitted maximal effect.

A short description of this experiment: Acumen qHTS Assay for Inhibitors of the mTORC1 Signaling Pathway in MEF (Tsc2-/-, p53-/-) Cells: Sytravon. Further: nearly all actives have a fitted effect of over 50% in size.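 On activity change, negative = inhibition: plate controls were DMSO for no effect and rapamycin for full effect.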 The following applies: phospho-rpS6 immunofluorescence/PI, 24 h; series mostly up to 38.3 µM; activity change, negative = inhibition: at the top concentration. In short, it runs like this:
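Plate MEFs (Tsc2-/-, p53-/-, empty vector) in DMEM/10% FBS; after 24 h add compound, incubate 24 h at 37 degree Celsius; fix in PFA/TX-100, block, stain phospho-rpS6 and 10 uM PI; scan at 488 nm; report % positive cells.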
For `CCc1c(C)sc2c1CCN(Cc1ccc(C#N)cc1)C2c1ccccc1` (stereo unspecified), the “activity change, negative = inhibition” value is inactive: 12.5%. With `O=C(CN1C(=O)CCSc2ccc(S(=O)(=O)N3CCCC3)cc21)Nc1cccc(F)c1`, the “activity change, negative = inhibition” value is inactive: 0.522%. Same read-out and setting: the figure for `COc1cc(C(c2c(C)[nH][nH]c2=O)c2c(C)[nH][nH]c2=O)ccc1OC(=O)c1ccccc1OC` is inactive: 4.4%.

Consider `COC(=O)CC1Oc2ccccc2-n2cc(-c3ccc(F)cc3)nc21` (stereo unspecified), for which the “activity change, negative = inhibition” value is inactive: -8.47%.

Consider `CCOC(=O)C(C)NC(=O)c1c2c(nc3ccccc13)C(=O)N(C1CCCCC1)C2` (stereo unspecified), for which the “activity change, negative = inhibition” value is inactive: -6.73%. The same measure, in the same setting: then `Cc1ccc(Cl)cc1-n1nnc(-c2nc(-c3ccc4c(c3)OCO4)no2)c1C`, with inactive: -3.85%; and `COc1ccc(Nc2nn3c(=O)c4cc5c(cc4nc3s2)OCO5)c(OC)c1`, with inactive: 2.03%; and `Cc1cccc(N(C)S(=O)(=O)c2cc(-c3cnc(C4CC4)o3)ccc2C)c1`, with inactive: 0%. Same read-out and setting: the figure for `O=C(CCNS(=O)(=O)c1ccc2c(c1)CCN2C(=O)C1CC1)N1CCN(c2cccc(Cl)c2)CC1` is inactive: -22.8%.

In the case of `CCC(=O)N1c2ccc(S(=O)(=O)CCC(=O)Nc3ccc(OC)cc3OC)cc2CC1C` (stereo unspecified), the “activity change, negative = inhibition” value is inactive: -3.43%. Same read-out and setting: the figure for `CCc1ccc(C2c3c(-c4ccccc4O)n[nH]c3C(=O)N2Cc2cccnc2)cc1` (stereo unspecified) is inactive: -4.98%. The same measure, in the same setting: then `CCC(=O)N1CCc2cc(CNS(=O)(=O)c3ccc(CC(C)C)cc3)ccc21`, with inactive: 4.57%; and `CCN1CCN(c2ncc3c(n2)CCN(Cc2ccccc2C)C3)CC1`, with inactive: -12.2%; and `COc1ccc(-c2nc(CS(=O)CC(=O)NCCc3ccc(Cl)cc3)c(C)o2)cc1OC` (stereo unspecified), with inactive: -0.721%. Still for that read-out and setting: the figure for `CCc1ccc(-n2nc(CO)c(C(=O)NC)n2)cc1` is inactive: 3.66%. For `CC(C)CCNC(=O)C1CCN(C(=O)c2cc3sccc3n2Cc2ccc(Cl)cc2)CC1`, the “activity change, negative = inhibition” value is inactive: -9.71%. For `Cc1ccc(CS(=O)(=O)c2ncc(Cl)c(C(=O)Nc3nnc(C(C)C)s3)n2)cc1`, the Potency is active: 14.7 µM.

Take `Cc1cccc(N2CCN(C(=O)Cn3c(-c4cccs4)cc4ccccc43)CC2)c1C`: the “activity change, negative = inhibition” value was inactive: 0.432%. Same read-out and setting: then `Cc1ccc2c(CC(=O)Nc3ccc(S(=O)(=O)N4CCCCC4)cc3)coc2c1C`, with inactive: -10.6%; and `COc1cc(CN(C(=O)c2ccccc2F)C2CCS(=O)(=O)C2)cc(OC)c1OC` (stereo unspecified), with inactive: 0.927%; and `CCCS(=O)(=O)N1CC(=O)N(c2ccc(C)c(Cl)c2)C(C)(C(=O)NC2CCCCCC2)C1` (stereo unspecified), with inactive: -4.73%. On the same count and under the same terms, then `CCCCNC(=O)CCCN1C(=O)c2ccccc2Sc2ncccc21`, with inactive: -2.7%; and `Oc1c(C(c2ccc(F)cc2)N2CCN(Cc3ccccc3)CC2)sc2nc(-c3ccco3)nn12` (stereo unspecified), with inactive: 0.278%; and `CN1C(=O)C2(c3ccccc31)N(c1cccc(C(F)(F)F)c1)C(=O)CS2(=O)=O` (stereo unspecified), with inactive: -6.73%. Still for that read-out and setting: then `O=C(NCc1ccc(F)cc1)C(=O)NCC(c1ccc2c(c1)OCO2)N1CCOCC1` (stereo unspecified), with inactive: -9.7%. For the molecule `COc1ccc(NC(=O)C2CCCN(S(=O)(=O)c3c(C)[nH]c(=O)[nH]c3=O)C2)c(OC)c1` (stereo unspecified), the “activity change, negative = inhibition” value is inactive: -7.05%. Same read-out and setting: then `COc1ccc(C(=O)N(Cc2ccco2)Cc2ccc(C)o2)cc1`, with inactive: 3.82%.

In the case of `Cc1cccc(-c2nc3nc(C)cc(NC(C)c4ccccc4)n3n2)c1` (stereo unspecified), the “activity change, negative = inhibition” value is inactive: 0.544%. The same measure, in the same setting: the figure for `COc1cc(NS(=O)(=O)c2ccc(NC(=O)c3ccc(Cl)cc3Cl)cc2)nc(OC)n1` is inactive: -3.36%. As for `Cc1ccc2nc(-c3ccc(NC(=O)COc4ccc(Br)cc4Br)cc3)sc2c1`, the “activity change, negative = inhibition” value is inactive: -7.25%. On the same count and under the same terms, the figure for `COCCCNC(=O)c1cnc2sc(N3CCCCC3)nn2c1=O` is inactive: -6.9%; for `CNC(=O)c1c(NC(=O)/C=C/c2ccccc2)sc2c1CCC2` it is inactive: 1.17%; for `CCOc1ccc(NC(=O)Cn2nnc(-c3nc(-c4ccncc4)no3)c2N)cc1` it is inactive: -1.4%.

In the case of `CCc1ccc(NCc2cc3cc4c(cc3n(CC(=O)Nc3ccccc3C)c2=O)OCCO4)cc1`, the “activity change, negative = inhibition” value was inactive: -3.43%. Still for that read-out and setting: the figure for `Cc1ccccc1NC(=O)/C(C#N)=C/c1ccc(Cl)cc1Cl` is inactive: -3.47%. Same read-out and setting: the figure for `CCOC(=O)c1ccc(NC(=O)CC(=O)Nc2ccc3nc4n(c(=O)c3c2)CCCCC4)cc1` is inactive: -2.59%; for `COc1ccc(-c2nc3sc(CCNS(=O)(=O)c4ccccc4)c(C)n3n2)cc1` it is inactive: 1.36%.

Consider `CCCOc1ccc(C(=O)Nc2cc3c(cc2N2CCCCC2)n(C)c(=O)n3C)cc1`, for which the “activity change, negative = inhibition” value is inactive: 0.771%. `COc1ccc(Br)cc1CNC(=O)CN1C(=O)c2cccnc2Oc2ccc(C)cc21`: the “activity change, negative = inhibition” value was inactive: -20.7%.

Take `Cc1ccc2oc(C(=O)Nc3ccc(S(=O)(=O)Nc4nccc(C)n4)cc3)cc(=O)c2c1`: the “activity change, negative = inhibition” value is inactive: 3.08%.

Consider `CC(C)c1ccc(N(CC(=O)O)S(=O)(=O)c2ccc3[nH]c(=O)c(=O)[nH]c3c2)cc1`, for which the “activity change, negative = inhibition” value is inactive: -1.13%.

Turning to `Cc1ccc2ncc3c(-c4ccc(F)cc4)nn(CC(=O)Nc4ccccc4C)c3c2c1`, the “activity change, negative = inhibition” value is inactive: -0.415%.

With `Cc1ccc(S(=O)(=O)Cc2nc(-c3ccc(C(=O)NCCCOC(C)C)cc3)oc2C)cc1`, the “activity change, negative = inhibition” value was inactive: -0.342%. Take `CCOc1ccc(C(=O)Nc2cc3c(cc2N2CCCC2)n(C)c(=O)c(=O)n3C)cc1OCC`: the “activity change, negative = inhibition” value was inactive: -15%. Same read-out and setting: then `CSc1ncc2c(n1)-c1ccccc1N(Cc1ccccc1)S2(=O)=O`, with inactive: 1.07%. Same read-out and setting: then `Cc1ccc2[nH]c3c(=O)n(CC(=O)Nc4ccc(Br)cc4C)ncc3c2c1`, with inactive: 1.5%; and `Fc1ccc(Nc2nc3ccccc3n3cnnc23)c(F)c1`, with inactive: -1.75%; and `COc1ccc(Oc2nc3c(c(=O)n(Cc4ccc(Br)cc4)c(=O)n3C)n2C)cc1`, with inactive: 2.54%.

Consider `COc1cccc(C(=O)N(Cc2nc(-c3ccc(Cl)cc3)no2)C(C)C)c1OC`, for which the “activity change, negative = inhibition” value was inactive: 1.43%. The same measure, in the same setting: then `COc1ccc(NC(=O)c2nc(-c3ccc(C)cc3)n3c2CCCCC3)cc1`, with inactive: -0.801%. On the same count and under the same terms, the figure for `CCSc1nc2ccccc2c(OCc2ccccc2Cl)c1C(=O)OC` is inactive: 5.91%.

Regarding `O=C(c1ccc(F)cc1)n1nc(-c2cccnc2)nc1NCc1ccccc1`, the “activity change, negative = inhibition” value is inactive: 1.41%.

Turning to `COc1ccc(-n2ccnc(NCCc3ccccc3)c2=O)cc1OC`, the “activity change, negative = inhibition” value is inactive: -0.174%.

Consider `CC(C)(C)c1ccc(C(=O)Nc2c(C(=O)c3ccc(F)cc3)oc3ccccc23)cc1`, for which the “activity change, negative = inhibition” value is inactive: 13.4%.

As to `Cc1nc2nc(CNC(=O)c3cccc(F)c3)nn2c(C)c1CCC(=O)Nc1cccc(Cl)c1`, the “activity change, negative = inhibition” value is inactive: -6.86%. On to `Cc1nn(C(C)C(=O)Nc2ccccc2C(F)(F)F)c(=O)c2c1sc1ccccc12` (stereo unspecified), for which the “activity change, negative = inhibition” value was inactive: -6.07%.

Turning to `COc1ccccc1CNC(=O)COCc1cc(-c2cccs2)on1`, the “activity change, negative = inhibition” value was inactive: 2.28%. Consider `Cc1ccc(N(CC(C)C)S(=O)(=O)c2nnc(NC(=O)C(C)C)s2)cc1`, for which the “activity change, negative = inhibition” value is inactive: -0.369%. For `Cc1ccc2oc(-c3ccc(Cl)c(NC(=O)c4cc5ccccc5o4)c3)nc2c1`, the “activity change, negative = inhibition” value is inactive: 1.65%. For `Cc1ccc(CNC(=O)c2cnc3c(-c4ccc(F)cc4)c(C)nn3c2C)o1`, the “activity change, negative = inhibition” value was inactive: -4.41%. Still for that read-out and setting: the figure for `COc1ccc(Cl)cc1NC(=O)c1cnc2sc(N3CCOCC3)nn2c1=O` is inactive: -4.26%.
